Screen size: about 370,000 compounds; about 150 (0.041%) were called active. The shares of active, inactive and inconclusive entries below differ from those in the screen. Calls follow the shape of the dose curve; as a rule, active = well fitted inhibition curve with a large enough effect; inconclusive = small, poorly fitted or top-dose-only effect; inactive = flat fitted curve, though single readings scatter. No potency is given beside an inconclusive call; the fits are too rough.
These molecules were tested against Beta-lactamase (Escherichia coli (strain K12)) (UniProt P00811) (assay: qHTS Inhibitors of AmpC Beta-Lactamase (assay with detergent)). Details: AmpC hydrolysis of nitrocefin, absorbance 480 nm, 0.01% Triton; series mostly up to 114 µM.
UniProt P00811, sequence (P00811 whole entry, looked up): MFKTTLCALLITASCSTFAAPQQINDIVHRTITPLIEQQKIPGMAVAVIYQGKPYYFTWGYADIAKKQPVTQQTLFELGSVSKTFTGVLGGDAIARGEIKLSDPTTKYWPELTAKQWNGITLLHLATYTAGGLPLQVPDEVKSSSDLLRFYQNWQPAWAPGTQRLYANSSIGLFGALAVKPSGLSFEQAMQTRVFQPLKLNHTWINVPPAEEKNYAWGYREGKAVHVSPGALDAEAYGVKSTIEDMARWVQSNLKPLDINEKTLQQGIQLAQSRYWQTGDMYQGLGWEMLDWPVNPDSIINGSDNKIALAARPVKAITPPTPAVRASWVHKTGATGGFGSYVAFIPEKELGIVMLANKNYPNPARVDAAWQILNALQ
In short: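 AmpC (5.3 nM in the dispensed reagent) in 20 mM phosphate pH 7.0 with 0.01% (detergent screen) or 0.0001% Triton X-100 was preincubated with compounds for 15 min at room temperature. Nitrocefin was then added from an 800 uM solution, and hydrolysis was followed at 480 nm.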
Also: nearly all actives have a fitted effect of over 25% in size.
Potency is read from the fitted curve at half-maximal effect; tags tell the direction and shape of the fitted curve.

Compound | Potency
Cc1cc(C(=O)CSc2nnnn2C)c(C)n1-c1cccc(F)c1 | inconclusive [inhibitor, full curve, poor fit]
Cc1nn(Cc2ccc(Cl)c(Cl)c2)c(C)c1NC(=O)c1cc(CC(C)C)on1 | inconclusive [inhibitor, full curve, poor fit]
CCC(C(=O)NC1CCN(C)CC1)c1ccccc1 (stereo not given) | inconclusive [inhibitor, full curve, poor fit]
CCCC(c1nnnn1CCC(C)C)N1CCC(C(N)=O)CC1 (stereo not given) | inactive
COc1ccc(/C=N/NC(=O)c2cccc(C(=O)N/N=C/c3ccc(OC)c(OC)c3)n2)cc1OC | inactive
C=CCN(c1ccccc1)S(=O)(=O)c1cccc(C(=O)Nc2ncccc2C)c1 | inconclusive [inhibitor, full curve, poor fit]
CC1(C(=O)N2CCN(c3ccc([N+](=O)[O-])cc3)CC2)CC1(Cl)Cl (stereo not given) | inactive
COC(=O)CN1C(=O)c2cccc3cccc1c23 | inactive
Cc1cc(C)n(Cc2ccc(C(=O)Nc3cccc(Br)c3)o2)n1 | inconclusive [inhibitor, partial curve]
O=C(Nc1ccc(F)c(Cl)c1)c1ccc2c(c1)OCO2 | inactive
CCOC(=O)N1CCN(S(=O)(=O)c2ccc(NC(C)=O)cc2)CC1 | inconclusive [inhibitor, single point]
CC(=O)NN1C(=O)c2ccc(Oc3ccc([N+](=O)[O-])cc3)cc2C1=O | inconclusive [inhibitor, full curve, poor fit]
COc1ccc(N2C(=O)/C(=C/c3cccs3)C(=O)NC2=S)cc1 | inactive
COc1ccc(NC(=O)COC(=O)C23CC4CC(CC(Cl)(C4)C2)C3)c(OC)c1 | inconclusive [inhibitor, full curve]
CCOC(=O)c1[nH]c(CSc2nnc(-c3ccc(OC)cc3)o2)c(C(=O)OCC)c1C | inactive
CCC(C)OC(=O)n1ccc(C(=O)Nc2nccs2)n1 (stereo not given) | inconclusive [inhibitor, partial curve]
CN=C(c1ccc([N+](=O)[O-])cc1)N1CCCCC1 | inconclusive [inhibitor, full curve]
COc1ccc(/C=C/C(=O)Nc2cc(=O)n(C)c(=O)n2C)cc1 | inactive
CN(CC(=O)Nc1cccc(F)c1)C(=O)c1ccccc1Sc1ccccc1C#N | inactive
COc1ccc(CN2C(=O)C(Cc3ccccc3)Nc3ncnc(N4CCCCC4)c32)cc1 (stereo not given) | inconclusive [inhibitor, full curve, poor fit]

— PubChem BioAssay AID485294 (National Center for Advancing Translational Sciences (NCATS), 2010)
